Measurements as given in patent US20220289806A1 (CYTIMM THERAPEUTICS, published 2022).

Columns and labels:
[1] = molecular target: T1, IL-2Rα in human Fc fusion protein format (ACROBiosystems) (human, UniProt P01589 22-217, limits assumed); test: Octet QKe BLI, IL-2Rα-Fc captured on AHC sensors
T1 construct: Bought reagent, captured on anti-Human IgG Fc Capture (AHC) sensors; also called CD25; not shown: human Fc
T1 sequence (looked up): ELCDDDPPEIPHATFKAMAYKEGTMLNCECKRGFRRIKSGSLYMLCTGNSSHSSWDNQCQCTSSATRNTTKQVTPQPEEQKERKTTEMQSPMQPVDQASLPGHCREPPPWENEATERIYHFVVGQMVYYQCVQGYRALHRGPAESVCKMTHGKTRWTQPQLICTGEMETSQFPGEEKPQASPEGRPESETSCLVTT
Description: (§1) IL-2Rα or IL-2Rβ in human Fc fusion protein format (ACROBiosystems) were captured on anti-Human IgG Fc Capture (AHC) sensors. […] Dissociation was detected following transfer of sensors into wells containing buffer alone. Data were collected and analyzed by Octet User Software. For analysis of the kinetics constants, 1:1 curve fitting model was used.

[2] = molecular target: T1, IL-2Rα in human Fc fusion protein …; test: Octet QKe (biolayer interferometry): IL-2Rα-human Fc on AHC sensors, serial dilutions of the IL-2 variant [cont.]
Description: as §1

[3] = molecular target: T2, IL-2Rβγ on human CD8+CD45RA+CD25low naïve T cells (human, UniProt P14784 27-551; P31785 23-369); test: cell-based or functional assay
T2 sequence (looked up) 1: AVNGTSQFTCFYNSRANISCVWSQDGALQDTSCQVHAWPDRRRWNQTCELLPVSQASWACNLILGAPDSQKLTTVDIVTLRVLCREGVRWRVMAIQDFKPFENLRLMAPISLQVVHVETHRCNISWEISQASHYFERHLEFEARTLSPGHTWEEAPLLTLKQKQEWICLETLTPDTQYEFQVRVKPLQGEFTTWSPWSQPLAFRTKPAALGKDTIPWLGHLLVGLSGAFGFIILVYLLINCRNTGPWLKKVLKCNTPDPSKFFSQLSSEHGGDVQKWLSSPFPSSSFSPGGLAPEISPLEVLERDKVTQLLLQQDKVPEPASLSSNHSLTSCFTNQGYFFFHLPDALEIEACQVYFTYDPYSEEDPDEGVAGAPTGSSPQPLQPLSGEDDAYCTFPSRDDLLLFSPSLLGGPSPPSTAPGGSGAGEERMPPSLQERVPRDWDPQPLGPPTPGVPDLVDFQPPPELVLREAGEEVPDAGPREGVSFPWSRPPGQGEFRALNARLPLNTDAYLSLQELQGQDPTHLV
T2 sequence (looked up) 2: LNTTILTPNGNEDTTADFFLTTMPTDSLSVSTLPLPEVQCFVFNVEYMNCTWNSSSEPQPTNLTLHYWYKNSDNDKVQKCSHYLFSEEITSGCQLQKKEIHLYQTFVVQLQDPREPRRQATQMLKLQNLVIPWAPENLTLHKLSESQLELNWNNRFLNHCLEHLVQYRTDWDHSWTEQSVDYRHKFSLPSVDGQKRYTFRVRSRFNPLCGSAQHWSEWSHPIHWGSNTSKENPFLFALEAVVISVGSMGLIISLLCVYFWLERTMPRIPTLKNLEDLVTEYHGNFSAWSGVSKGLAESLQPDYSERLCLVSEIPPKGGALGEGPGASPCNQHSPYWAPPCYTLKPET

[4] = molecular target: T3, IL-2Rαβγ on human T cells (human, UniProt P01589 22-272; P14784 27-551; P31785 23-369); test: cell-based or functional assay
T3 sequence (looked up) 1: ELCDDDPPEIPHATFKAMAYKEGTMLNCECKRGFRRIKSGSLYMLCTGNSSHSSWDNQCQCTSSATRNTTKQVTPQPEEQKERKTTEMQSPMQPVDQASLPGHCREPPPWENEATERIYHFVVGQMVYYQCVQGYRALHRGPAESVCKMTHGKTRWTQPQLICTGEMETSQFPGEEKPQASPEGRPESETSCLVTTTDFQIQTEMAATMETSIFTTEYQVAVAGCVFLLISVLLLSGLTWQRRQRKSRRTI
T3 sequence (looked up) 2: T2 sequence (looked up) 1
T3 sequence (looked up) 3: T2 sequence (looked up) 2

[5] = molecular target: T1, IL-2Rα in human Fc fusion protein …; test: Octet QKe BLI, IL-2Rα-Fc on AHC sensors, 1:1 fit
Description: as §1

B2: T41C-PEG20 (ligand)
chain: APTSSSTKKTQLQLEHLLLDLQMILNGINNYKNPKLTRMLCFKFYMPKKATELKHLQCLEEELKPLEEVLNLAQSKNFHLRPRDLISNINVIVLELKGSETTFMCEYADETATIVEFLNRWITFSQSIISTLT
modifications: maleimide-PEG 20K on Cys 41
notes: rhIL-2 (C125S) background, PEGylated at the introduced cysteine; not shown: His tag
- binding result [1]: no binding

B4: Y31C-PEG20 (ligand)
chain: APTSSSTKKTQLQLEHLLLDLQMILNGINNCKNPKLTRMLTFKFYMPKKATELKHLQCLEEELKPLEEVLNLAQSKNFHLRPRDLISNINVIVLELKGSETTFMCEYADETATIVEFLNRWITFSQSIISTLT
modifications: maleimide-PEG 20K on Cys 31
notes: rhIL-2 (C125S) background, PEGylated at the introduced cysteine; also called Y31C-PEG20 conjugate; not shown: His tag
- Kd [5]: 73 nM
- koff [5]: 0.0279 s⁻¹
- kon [5]: 383000 M⁻¹ s⁻¹

B5: R38C-PEG20 (ligand)
chain: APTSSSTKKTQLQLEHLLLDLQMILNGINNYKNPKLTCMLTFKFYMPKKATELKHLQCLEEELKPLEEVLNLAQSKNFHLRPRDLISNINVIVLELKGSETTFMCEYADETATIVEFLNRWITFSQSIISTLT
modifications: maleimide-PEG 20K on Cys 38
notes: also called R38-P20; not shown: His tag
- binding result [1]: no binding
- EC50 of STAT5 phosphorylation, CD25-CD8+ naïve T (IL-2Rβγ) [3]: 8.19 µg/mL
- EC50 of STAT5 phosphorylation, CD25+CD4+ T (IL-2Rαβγ) [4]: 3.39 µg/mL

B6: N33C-PEG20 (ligand, not shown: small tags and cut ends)
chain: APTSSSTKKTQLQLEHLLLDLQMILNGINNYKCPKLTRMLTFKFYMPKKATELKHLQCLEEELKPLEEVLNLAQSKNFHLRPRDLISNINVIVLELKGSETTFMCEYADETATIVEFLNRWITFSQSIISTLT
modifications: maleimide-PEG 20K on Cys 33
- EC50 of STAT5 phosphorylation, CD25-CD8+ naïve T (IL-2Rβγ) [3]: 6.34 µg/mL
- EC50 of STAT5 phosphorylation, CD25+CD4+ T (IL-2Rαβγ) [4]: 0.31 µg/mL

B7: N30C-PEG20 (ligand)
chain: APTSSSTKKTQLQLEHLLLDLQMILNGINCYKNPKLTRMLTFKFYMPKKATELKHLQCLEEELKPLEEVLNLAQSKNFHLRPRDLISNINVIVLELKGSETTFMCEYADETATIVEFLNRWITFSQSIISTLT
modifications: maleimide-PEG 20K on Cys 30
notes: also called N30-P20; not shown: His tag
- Kd [5]: 117 nM
- koff [5]: 0.0697 s⁻¹
- kon [5]: 593000 M⁻¹ s⁻¹
- EC50 of STAT5 phosphorylation, CD25-CD8+ naïve T (IL-2Rβγ) [3]: 17.3 µg/mL
- EC50 of STAT5 phosphorylation, CD25+CD4+ T (IL-2Rαβγ) [4]: 0.26 µg/mL

Next, values leading:

- binding result [1]: no binding
B1: K35C-PEG20 (ligand)
chain: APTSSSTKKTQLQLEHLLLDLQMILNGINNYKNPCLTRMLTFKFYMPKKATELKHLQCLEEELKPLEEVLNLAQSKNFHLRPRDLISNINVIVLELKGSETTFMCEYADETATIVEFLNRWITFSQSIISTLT
modifications: maleimide-PEG 20K on Cys 35
notes: as for B2

- binding result [2]: no binding (tested: not printed)
- EC50 of STAT5 phosphorylation, CD25-CD8+ naïve T (IL-2Rβγ) [3]: 3.98 µg/mL
- EC50 of STAT5 phosphorylation, CD25+CD4+ T (IL-2Rαβγ) [4]: 1.36 µg/mL
B3: P65C-PEG20 (ligand)
chain: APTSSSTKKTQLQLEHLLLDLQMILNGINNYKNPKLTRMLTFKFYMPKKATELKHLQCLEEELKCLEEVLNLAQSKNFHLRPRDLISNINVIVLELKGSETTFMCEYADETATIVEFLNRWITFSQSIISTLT
modifications: maleimide-PEG 20K on Cys 65
notes: also called P65C-PEG20 conjugate; P65-P20; not shown: His tag

Each block holds one binder with its values, some of them ahead of it.
